Our source for the activation values is PubChem BioAssay AID1346428 (National Center for Advancing Translational Sciences (NCATS), 2018).

Where “and” joins values, the source holds several entries; their conditions need not be identical. Identical values can stand only once. The campaign covered roughly 48,000 compounds. About 1,200 (2.5%) were called active. Not shown: some 2% with an inconclusive outcome.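 The calls were made as follows: active = activation of at least 60% and not above a set upper limit (about 1 call in 100 departs from these limits); inconclusive = activation of 40% to 60%, or above that upper limit; inactive = activation under 40%.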 The list shows a part of the results.

The target in the assay is Probable G-protein coupled receptor 32 (Homo sapiens) (UniProt O75388). The experiment in a line: qHTS for Agonists of Human Resolvin D1 Receptor DRV1. Also: 0% is about no effect. To be noted: CHO-K1 GPR32 beta-arrestin PathHunter luminescence, 90 min; at 76.9 µM; active compounds read high; zero percent set by DMSO-only wells. The method in brief: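 PathHunter beta-arrestin recruitment in CHO-K1 cells stably expressing ProLink-tagged GPR32. Cells were exposed to compound for 90 min at 37 C, then chemiluminescence was read after 1 h detection at ambient temperature; DMSO served as basal control.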
UniProt O75388, sequence (O75388 whole entry, looked up): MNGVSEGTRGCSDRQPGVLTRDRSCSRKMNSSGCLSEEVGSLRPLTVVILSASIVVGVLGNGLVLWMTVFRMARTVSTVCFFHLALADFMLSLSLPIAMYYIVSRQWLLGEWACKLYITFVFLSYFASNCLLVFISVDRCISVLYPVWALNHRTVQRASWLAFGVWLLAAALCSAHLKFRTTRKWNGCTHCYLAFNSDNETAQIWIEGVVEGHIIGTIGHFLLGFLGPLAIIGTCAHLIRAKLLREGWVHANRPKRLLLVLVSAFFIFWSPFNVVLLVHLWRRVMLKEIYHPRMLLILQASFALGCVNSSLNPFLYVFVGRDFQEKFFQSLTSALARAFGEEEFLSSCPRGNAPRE
With `O=C(Nc1ccc(OCc2cc(=O)n3c4c(sc3n2)CCCC4)cc1)c1ccccc1`, the activation was inactive: -7%.

Take `CC1CCc2nc3ncn(Cc4ccccc4F)c(=O)c3cc2C1` (centres undefined): the activation was inactive: -6.44%.

For `Cc1ccc(-n2c(SCC(=O)O)nc3sc4c(c3c2=O)CCCC4)cc1`, the activation was inactive: 4.03%.

Regarding `O=C(Cn1c(=O)c2ccccc2n(CC(=O)Nc2ccc(F)cc2F)c1=O)NCCc1ccccc1`, the activation was inactive: -1.03%.

Turning to `CCN(CC)CCNC(=O)c1ccc2c(c1)NC(=O)C(CS(=O)(=O)Cc1cccc(Br)c1)N2` (centres undefined), the activation was inactive: -14.6%.

Turning to `COc1ccc(-c2nc3cc(C(C)C)ccc3o2)cc1NC(=O)COc1ccc(C)cc1C`, the activation was inactive: -1.93%.

As to `COc1ccc(NC(=O)CSc2ncccc2C(=O)O)cc1OC`, the activation is inactive: -1.88%.

For the compound `Cc1ccc(C)c(Nc2ncnc3onc(C)c23)c1`, the activation was inactive: 14.4%.

Regarding `COc1ccc(NC(=O)CCSc2nc(-c3ccco3)cc(C(F)(F)F)n2)cc1`, the activation is inactive: -7.44%.

With `CCN(C(=O)c1cc2c(=O)oc3ccc(C)cc3c2s1)c1cc(OC)ccc1OC`, the activation is inactive: -6.45%.

`CCN(CC)c1ccc(CN(C(=O)Cc2coc3ccc(C)cc23)C2CCS(=O)(=O)C2)cc1` (centres undefined): the activation was inactive: -38.6%.

For `CCC1CCCCN1CCCNC(=O)c1ccc2c(c1)N(Cc1ccccc1)C(=O)c1ccccc1S2(=O)=O` (centres undefined), the activation was inactive: -15.7%.

For `CCn1nc(C)c2c(-c3ccccc3)cc(=O)n(C(C)C(=O)NCc3cccc(OC)c3)c21` (centres undefined), the activation was inactive: -2.83%.

For `CCOc1cccc(CC(=O)N2CCc3c([nH]c4ccccc34)C2c2ccccc2)c1OCC` (centres undefined), the activation was inactive: -31.4%.

Regarding `Cc1ccc(-c2nc3scc(CCNS(=O)(=O)c4ccc(F)c(C)c4)n3n2)cc1`, the activation was inactive: 20.1%.

Turning to `CCc1ccc(OCCCn2c(-c3ccc(Cl)cc3)nc3ccccc3c2=O)cc1`, the activation was inactive: -11.9%.

Turning to `CCC1CN(C(=O)N2CCC(C(=O)NCCc3ccccc3C)CC2)c2ccccc2O1` (centres undefined), the activation was inactive: -15.2%.

With `Cc1ccc(OCC(=O)OCc2cc(=O)n3nc(C4CCCCC4)sc3n2)cc1C`, the activation is inactive: -10.3%.

`O=C(c1[nH]c2ccccc2c1Sc1ccc(Cl)cc1)N1CCCCC1`: the activation was inactive: -29.2%.

As to `O=C1CC(c2ccccc2)Sc2nc(-c3ccc(F)cc3)nn21` (centres undefined), the activation is inactive: -8.23%.

In the case of `CCN(CC)c1ccc(NC(=O)c2cc(C)nc3c2c(C)nn3-c2cccc(F)c2)c(C)c1`, the activation was inactive: -23.7%.

Consider `Cc1ccc(Cl)cc1NC(=O)CSc1ccc(C(=O)O)cn1`, for which the activation is inactive: -3.58%.

For `c1ccc(-c2nnc(CN3CCN(c4ccccn4)CC3)o2)cc1`, the activation is inactive: 17.1%.

Regarding `O=C(NCCSCc1cccc(Cl)c1)C1CCN(S(=O)(=O)Cc2ccccc2)CC1`, the activation is inactive: 9.6%.

Turning to `CCN(Cc1ccccc1)Cc1c(O)ccc2c(=O)c(-c3ccccc3)c(C(F)(F)F)oc12`, the activation was inactive: -22.1%.

For the compound `CCOc1ccccc1CNCc1c(C(=O)O)c(C)n(Cc2ccc(Cl)cc2)c1C`, the activation was inactive: -6.47%.

As for `COc1ccc(C(=O)Nc2cc(C(C)C)c(O)c(S(=O)(=O)c3ccc(Cl)cc3)c2C)cc1`, the activation was inactive: -38.9%.

`O=C(Nc1nnc(S(=O)(=O)N2CCOCC2)s1)c1ccccc1Cl`: the activation is inactive: 19.1%.

On to `Cc1cc2nn(-c3ccc(F)cc3)nc2cc1NC(=O)c1cccc2ccccc12`, for which the activation was inactive: -6.5%.

Turning to `CCCC(=O)n1nc(-c2ccco2)nc1NCc1ccccc1Cl`, the activation is inactive: 2.44%.

For `CC(C)CCNC(=O)c1ccc2c(c1)N(Cc1cccc(Cl)c1)C(=O)c1ccccc1S2`, the activation is inactive: -17.2%.

In the case of `Nc1nc(N)c2nc(-c3ccccc3)c(N)nc2n1`, the activation was inactive: 43.9% and inactive: 8.95%.

Take `COc1ccc(OC)c(CCNC(=O)c2cc3c(=O)oc4ccc(C)cc4c3s2)c1`: the activation was inactive: 4.38%.

On to `CC(=O)Nc1ccc(NC(=O)C2CCCN2S(=O)(=O)c2ccc3c(c2)CCCC(=O)N3)cc1` (centres undefined), for which the activation is inactive: -12%.

On to `COc1ccc(N2CCN(C(=O)CN3C(=O)CSc4c3c(C)nn4-c3ccccc3)CC2)cc1`, for which the activation was inactive: 5.73%.

For the compound `O=C(Nc1ccc2oc(-c3cccnc3)nc2c1)c1ccc(-c2ccc(OC(F)(F)F)cc2)o1`, the activation was inactive: 29.6%.

On to `Cc1ccc(OCC(=O)Nc2ccc3c(c2)nc(CCNC(=O)c2ccco2)n3C)cc1`, for which the activation was inactive: 1.94%.

On to `O=C(Nc1ccc(F)c(Cl)c1)c1cc(S(=O)(=O)N2CCc3ccccc3C2)ccc1F`, for which the activation is inactive: -16.3%.

Regarding `O=C(Nc1ccc2nc(SCc3ccccc3)sc2c1)c1ccccc1F`, the activation is inactive: 26.6%.

Take `Cc1ccccc1N1CC(C(=O)Nc2ccc(Br)cc2)CC1=O` (centres undefined): the activation is inactive: 9.33%.

Consider `COCCCNc1nc2cc(OC)c(OC)cc2c2nc(-c3ccccc3)nn12`, for which the activation is inactive: -9.21%.

Take `COc1ccc(CNC(=O)CN2N=C(c3ccccc3)CCC2=O)c(OC)c1`: the activation was inactive: -13.7%.

Turning to `CCn1c(=O)c(=O)n(CC)c2cc(N3CCCCC3)c(NC(=O)c3ccc(Cl)cc3)cc21`, the activation is inactive: -35.1%.

Take `Cc1nnc(N2CCCC(C(=O)NCc3ccccc3F)C2)c2nn(-c3ccc(Cl)cc3)c(C)c12` (centres undefined): the activation was inactive: -9%.

With `O=C(CSc1n[nH]c(-c2ccccc2)n1)NCCCc1ccccc1`, the activation is inactive: -3.18%.

Consider `Cc1ccc(-n2nnc(-c3nsc(NC(=O)c4cccc(Cl)c4)n3)c2C)cc1C`, for which the activation is inactive: 11.1%.

In the case of `COc1cc(Cl)c(C)cc1NC(=O)c1ccc2c(SCC(=O)O)c3c(nc2c1)CCCC3`, the activation was inactive: -17.6%.

For the compound `COc1ccc(C(=O)NCc2nnc(SCC(=O)Nc3ccccc3)n2-c2ccccc2)cc1`, the activation was inactive: -6.65%.

Consider `CCOC(=O)c1cc(S(=O)(=O)N2CCN(c3cc(C)ccc3C)CC2)[nH]n1`, for which the activation was inactive: -3.73%.

In the case of `Cc1cccc(C)c1N1CC(c2nc3ccccc3n2CC(=O)OC(C)C)CC1=O` (centres undefined), the activation was inactive: -8.48%.

For the compound `COc1ccccc1Nc1nn2c(=O)c3ccc(C(=O)N4CCCCC4)cc3nc2s1`, the activation is inactive: 6.68%.

For the compound `COc1ccc(CCn2nnnc2C2(c3ccc(C)cc3)CC2)cc1`, the activation was inactive: -12.4%.

As to `COc1ccc(NC(=O)CSc2nc3cc(OC)c(OC)cc3c3nc(-c4ccccc4)nn23)cc1Cl`, the activation is inactive: 2.74%.

For `COc1ccc(CC(=O)NCc2nc3cccnc3n2Cc2ccc(C)cc2)cc1`, the activation was inactive: -6.93%.

On to `CCCN(CCC)C(=O)CSc1nc2ccccc2c(=O)n1Cc1ccco1`, for which the activation is inactive: -25.5%.

On to `COC(=O)c1ccc(NC(=O)C(=O)NCCc2sc(-c3cccc(F)c3)nc2C)cc1`, for which the activation was inactive: -13.5%.

Take `COc1cc(-c2ccno2)ccc1S(=O)(=O)N1CCN(c2ccccc2F)CC1`: the activation is inactive: -9.67%.

As for `CC1CCN(S(=O)(=O)c2cc3c4c(c2)CC(=O)N4CCC3)CC1`, the activation was inactive: -28.1%.

For `Cc1ccc(-c2c(C)n3c4c(=O)n(C)c(=O)n(C)c4nc3n2-c2cccc(O)c2)cc1`, the activation was inactive: -3.91%.

Consider `Fc1ccc(-c2cc(-c3ccccc3)c3c(n2)-c2cc(F)ccc2OC3)cc1`, for which the activation is inactive: -2.33%.

On to `Cc1cc(C)cc(NC(=O)CSc2oc(-c3cccs3)nc2S(=O)(=O)c2ccccc2)c1`, for which the activation is inactive: -13.1%.

`COc1ccc(S(=O)(=O)NCC(c2ccco2)N2CCOCC2)cc1` (centres undefined): the activation was inactive: -13.7%.

For the compound `Cc1cccc(-c2cc(NC(=O)C(C)(C)C)n(-c3ccccc3)n2)c1`, the activation was inactive: -8.42%.

On to `COc1ccc(C(CC(=O)Nc2cccc(C)c2C)N2Cc3ccccc3C2=O)cc1` (centres undefined), for which the activation is inactive: -21.6%.

With `COc1cc(C2c3c(oc4ccccc4c3=O)C(=O)N2c2nncs2)cc(OC)c1OC` (centres undefined), the activation was inactive: -10.1%.

With `CCC1CN(C(=O)N2CCC(C(=O)Nc3cc(C)ccc3C)CC2)c2ccccc2O1` (centres undefined), the activation is inactive: -24.2%.

Consider `CCCCOc1ccc(C(=O)CCN2CCCCC2)cc1`, for which the activation was inactive: 42.6%.

Turning to `CCOc1ccc(-c2cn3c(n2)sc2cc(C(=O)NCCCc4ccccc4)ccc23)cc1`, the activation is inactive: -7.1%.

Take `Cc1nc2nc(SCc3ccc(F)cc3Cl)nn2c(C)c1Cc1ccccc1`: the activation was inactive: -22.8%.

On to `O=C(COc1ccc(F)cc1)Nc1ccccc1C(=O)OCc1cc(=O)n2nc(C3CC3)sc2n1`, for which the activation is inactive: 0.311%.

Turning to `CC(NC(=O)c1ccc(Nc2nc3ccccc3n3nnnc23)cc1)c1ccccc1` (centres undefined), the activation was inactive: -6.62%.

Turning to `O=C(CS(=O)(=O)c1cccc2nsnc12)NCc1ccc(Cl)cc1`, the activation is inactive: -10.2%.

On to `COc1ccc(-c2c(C)nn3c4c(cnc23)C(=O)CC(c2ccccc2)C4)cc1` (centres undefined), for which the activation is inactive: -1.29%.

As for `COc1cccc(N2CC(NC(=O)c3ccc4c(c3)OCO4)CC2=O)c1` (centres undefined), the activation was inactive: -5.5%.

With `Cc1nc2nc(-c3ccc(Cl)cc3Cl)nn2c(C)c1CCC(=O)Nc1ccc(F)cc1`, the activation is inactive: 0.21%.

In the case of `CCCCN(C)CCCNC(=O)CN1C(=O)COc2ccc(S(=O)(=O)N3CCOCC3)cc21`, the activation was inactive: -11.4%.

Turning to `CC(=O)c1ccc(NC(=O)C2CCCN(S(=O)(=O)c3ccc4c(c3)CCCN4C(C)=O)C2)cc1` (centres undefined), the activation is inactive: 8.18%.

Consider `COc1ccccc1N1CCN(S(=O)(=O)c2c(C)sc3ncn(CC(=O)Nc4ccc(C(F)(F)F)cc4)c(=O)c23)CC1`, for which the activation is inactive: -1.76%.

For the compound `Cc1cc(C)c(NC(=O)CCCN2C(=O)COc3ccc(C)cc32)c(C)c1`, the activation is inactive: -7.91%.

For the compound `COc1ccc(CCNC(=O)CN(c2cc(C(F)(F)F)ccc2Cl)S(C)(=O)=O)cc1`, the activation was inactive: 31.4%.

On to `Cc1ccc(OCC(=O)Nc2ccccc2C(=O)OCc2cc(=O)n3ccsc3n2)cc1C`, for which the activation was inactive: -0.576%.

As for `O=C(O)Cc1sc(Nc2ccccc2Cl)nc1-c1ccccc1`, the activation is inactive: -8.03%.

On to `CCOC(=O)c1c(NC(=O)Cc2coc3cc(C)ccc23)sc2c1CCCC2`, for which the activation was inactive: -27.6%.

Consider `CCc1ccc(NC(=O)c2cc3nc(-c4ccc(C)cc4)cc(C(F)(F)F)n3n2)cc1`, for which the activation was inactive: 3.52%.
